Assay results from article PMC4336329 (PLoS ONE, 2015).
In all, about 310,000 compounds went through this assay and about 14,000 (4.5%) showed an effect of 50% or more. Effects have a minus sign here. The list shows a part of the results.

molecular target: human ether-à-go-go-related gene (hERG) potassium channel (human, UniProt Q12809); assay: primary screen, population patch clamp on CHO cells stably expressing hERG
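Further: peak tail current of the secondary pulse compared with the same well before compound.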

Sequence of human ether-à-go-go-related gene (hERG) potassium channel (Q12809 whole entry, looked up): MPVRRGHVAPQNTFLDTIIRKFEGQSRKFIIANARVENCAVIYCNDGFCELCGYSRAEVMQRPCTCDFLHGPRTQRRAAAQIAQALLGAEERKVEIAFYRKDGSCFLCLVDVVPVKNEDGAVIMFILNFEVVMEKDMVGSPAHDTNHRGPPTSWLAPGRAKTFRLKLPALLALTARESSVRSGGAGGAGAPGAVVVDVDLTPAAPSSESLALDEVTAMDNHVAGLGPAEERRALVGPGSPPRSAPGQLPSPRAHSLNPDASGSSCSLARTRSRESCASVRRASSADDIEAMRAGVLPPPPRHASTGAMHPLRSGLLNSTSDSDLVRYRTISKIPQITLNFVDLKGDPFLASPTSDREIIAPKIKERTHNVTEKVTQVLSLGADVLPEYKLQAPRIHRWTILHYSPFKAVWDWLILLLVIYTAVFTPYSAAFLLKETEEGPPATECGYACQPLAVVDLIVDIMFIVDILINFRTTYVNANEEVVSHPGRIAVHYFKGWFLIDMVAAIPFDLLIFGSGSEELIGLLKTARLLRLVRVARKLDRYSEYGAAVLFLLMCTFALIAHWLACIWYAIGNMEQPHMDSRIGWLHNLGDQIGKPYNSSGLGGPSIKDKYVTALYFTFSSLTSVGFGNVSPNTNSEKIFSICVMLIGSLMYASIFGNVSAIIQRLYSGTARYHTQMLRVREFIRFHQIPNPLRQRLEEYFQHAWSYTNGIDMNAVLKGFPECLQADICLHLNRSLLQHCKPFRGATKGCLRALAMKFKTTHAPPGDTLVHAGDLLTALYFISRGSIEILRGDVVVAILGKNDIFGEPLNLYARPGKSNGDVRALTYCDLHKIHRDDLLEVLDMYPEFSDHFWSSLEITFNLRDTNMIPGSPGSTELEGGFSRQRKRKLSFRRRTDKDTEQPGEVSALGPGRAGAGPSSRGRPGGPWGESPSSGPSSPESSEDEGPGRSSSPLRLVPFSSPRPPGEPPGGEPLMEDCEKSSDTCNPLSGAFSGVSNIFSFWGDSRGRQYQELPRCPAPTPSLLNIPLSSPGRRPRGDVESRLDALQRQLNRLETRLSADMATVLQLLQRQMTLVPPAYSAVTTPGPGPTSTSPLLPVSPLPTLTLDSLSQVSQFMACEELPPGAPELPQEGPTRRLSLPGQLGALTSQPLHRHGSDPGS

| SMILES | hERG current change (%, negative = inhibition) at 10uM |
| --- | --- |
| CC(C)c1ccc(-c2nnc(SCC(=O)NC3CC3)n2C)cc1 | 6.36% |
| COc1ccc2cc(Br)ccc2c1CC(=O)NC1CC(C)(C)NC(C)(C)C1 | -12.9% |
| Cc1cccc(C(=O)NCC(=O)OCc2cc(=O)n3ccsc3n2)c1 | 4.36% |
| CCOc1ccc(NC(=O)NCc2cccn2C)cc1 | 1.46% |
| COc1ccc(N2CC(C(=O)Nc3ccncc3)CC2=O)cc1 (centres unmarked) | 9.19% |
| Cc1ccc(NC(=O)COC(=O)COc2ccc3ccc(=O)oc3c2)cc1[N+](=O)[O-] | 3.51% |
| OCCC1CN(Cc2ccon2)CCN1CCc1ccccc1 (centres unmarked) | -19.2% |
| O=C(O)C(=O)O.OC1(c2ccccc2)CCNC2CCCCC21 (centres unmarked) | 0.512% |
| O=S(=O)(Nc1nc2ccccc2nc1Cl)c1ccc(F)cc1 | 6.75% |
| O=C(CSc1nnnn1-c1ccc2c(c1)OCO2)NCc1cccs1 | -26.6% |
| CC(=O)c1cc2c(cc1NC(=O)CN1CCOCC1)OCO2 | 1.1% |
| CCOC(=O)C1C(c2ccc(Cl)cc2)NC(=S)NC1(O)C(F)(F)F (centres unmarked) | 16.7% |
| Cc1ccc2nc3nc(NCC4CCCO4)c(C(=O)NC4CCCCC4)cc3c(=O)n2c1 (centres unmarked) | -78.1% |
| COc1cc(C(C#N)N2CCCCC2)ccc1O (centres unmarked) | 4.58% |
| O=C(c1cccs1)N1CCN(Cc2ccc3c(c2)OCO3)CC1 | -15.7% |
| COc1ccc(-c2cc(CS(=O)(=O)c3ccccc3)on2)cc1 | -15% |
| Cc1cc(C(=O)N/N=C\c2ccc(COc3ccc([N+](=O)[O-])cc3)o2)ccc1[N+](=O)[O-] | -7.77% |
| Cn1c(=O)c2ncn(CC(=O)Nc3cccc(-c4nc5ccccc5s4)c3)c2n(C)c1=O | -23.8% |
| CCOC(=O)c1c(-c2ccc(C)o2)csc1NC(=O)CSc1nnnn1-c1ccccc1 | -3.66% |
| CN1CCN(CC(O)COCCOc2ccc(Br)cc2)CC1.Cl (centres unmarked) | 10.4% |
| COc1ccc(/C(C)=N/NC(=O)C2C3CCCCC32)c(OC)c1 (centres unmarked) | -0.79% |
| CCN(CC)S(=O)(=O)c1ccc(F)c(C(=O)NCCC(C)C)c1 | -40.2% |

| SMILES | hERG current change (%, negative = inhibition) at 10uM |
| --- | --- |
| COc1ccc(N(C(=O)CNC(=O)c2ccco2)C(C(=O)NCC2CCCO2)c2ccccc2)cc1Cl (centres unmarked) | 11.9% |
| COc1cccc(N2CCN(C(=O)C3C4C=CC5(CN(Cc6ccccc6Cl)C(=O)C35)O4)CC2)c1 (centres unmarked) | -14.1% |
| O=C(O)C1CC=CCC1C(=O)Nc1ccccc1 (centres unmarked) | -0.752% |
| CCc1ccccc1NC(=O)c1ccc2c(O)c(S(=O)(=O)c3ccc(OC)cc3)c(=O)[nH]c2c1 | 11% |
| NC(N)=NS(=O)(=O)c1ccc(N/C=C\C(=O)c2ccncc2)cc1 | 11.2% |
| O=C(CCc1nnc(CCCCc2ccccc2)o1)N(CCO)Cc1ccccc1 | -1.97% |
| CC(C)Oc1ccc(/C=C(\NC(=O)/C=C/c2ccco2)C(=O)NCCc2nc3ccccc3[nH]2)cc1 | -28.6% |
| O=C(NCC(c1ccc(F)cc1)N1CCOCC1)c1ccco1 (centres unmarked) | -14.5% |
| C/C(=N\NC(=O)C1CCCC1)c1ccc(Cl)c(Cl)c1 | 13.7% |
| Cc1[nH]c2ccccc2c1C(=O)Cn1c(=O)oc2ccccc21 | 1.12% |
| CCOc1ccccc1NC(=O)CSc1nnc(NC(=O)c2ccco2)s1 | 21.7% |
| O=C(COC(=O)c1ccc(F)cc1Cl)NC1CCS(=O)(=O)C1 (centres unmarked) | -7.68% |
| COC(=O)C(C)n1cnc2c(nnn2-c2ccc(OC)cc2)c1=O (centres unmarked) | 6.69% |
| COCCNC(=O)CSc1nc2sc(C)c(C)c2c(=O)n1-c1ccccc1 | 1.63% |
| COc1ccc(OC)c(S(=O)(=O)N2CCN(C(=O)CCc3ccccc3)CC2)c1 | -2.06% |
| Cc1cc(C)n(C(CC(=O)N2CCc3ccccc3C2)C(=O)O)n1 (centres unmarked) | -4.33% |
| CCOC(=O)c1cccc(NC(=O)C(C)N2C(=O)c3ccccc3C2=O)c1 (centres unmarked) | -8.2% |
| CN(C)c1nnnn1-c1cccc(Oc2ncc(C(F)(F)F)cc2Cl)c1 | -10.2% |
| CCCOc1ccc(/C=C/C(=O)NC2CCCCC2)cc1 | 6.17% |
| CSc1cccc(NC(=O)OC2CCCCCCCCCCC2)c1 | 7.83% |
| CN(c1ccc(C(=O)NC2CC3CCC2C3)cc1)S(C)(=O)=O (centres unmarked) | 1.44% |
| CN(NC1OC(=O)c2ccccc21)c1ccccc1[N+](=O)[O-] (centres unmarked) | 9.64% |
